The results in this text go back to the RNAGym collection of RNA variant scans (doi:10.7554/elife.90254).

The source gives no read counts; variants with many changes may rest on few reads.

The chains are these.
B1: LINE1-mini (parent)
chain: GGCAGAGCUCAACACAGCGUGGCAAAGUGGCUGUGGCUAGACUGCC

This data set covers variants of B1. Briefly: self-cleavage, relative activity (ratio to wild type); higher = more cleavage; in vitro, sequencing; the parent is a self-cleaving ribozyme.
In the case of C10A C23A G33C, the self-cleavage was 0.

For G2U C3U A12G, the self-cleavage turned out to be 0.04. A6U U32A U34C: the self-cleavage came to 0.04. For the variant G1A A6U C10U C15G C18G G44U, the self-cleavage was found to be 0.04. As for U38C A39U G40U, the self-cleavage was determined as 0.24.

With G5C C15G G21A, the self-cleavage came to 0.02. For C23G G27A G35A C42U the value was 0.14; for G19U G22C A24U, 0.23. Next, G5C A16U G21U C23A U43A: 0.01. Next, A11C A26C G27C G29U: 0.08.

In the case of A4G C10A G17C G19C C31G C37A A39U G40A, the self-cleavage was determined as 0. C18G U34G G40C: the self-cleavage is 0.05.

For C10G U28G G33C, the self-cleavage was determined as 0.04. As to G1C A6G C46U, the self-cleavage is 0.08.

As for C10G G19A G30A, the self-cleavage was 0.23. Next, G5U G30U U34G C37G A39C: 0.01; G1U G5U G27U: 0.07. In the case of C10G G27U G44U, the self-cleavage came to 0. C15A U20A C31G: the self-cleavage was 0.04.

For the variant G7C C31U G44A, the self-cleavage was 0.01.

With C13A G21U C37U, the self-cleavage is 0.12. As to G1A G21U G36U, the self-cleavage was determined as 0.02. For the variant G2C A11U U32C U43G, the self-cleavage was 0.01. On to A11U C13A G30U U34A, for which the self-cleavage is 0.04. For G22U A41C G44C, the self-cleavage was determined as 0.28. Next, G5A G7U U38A C42U: 0.01; A11U C15A A26C C31G: 0.01. Consider C3U A4U A11U G21U C46G, for which the self-cleavage was 0.02. For the variant C13A G19U C37A, the self-cleavage was 0.02. As for G5C A12G A16C G17U G22A G27U, the self-cleavage amounted to 0.1.

For the variant C3U A4G G17A C45U C46U, the self-cleavage stood at 0.01. Take A14U G22U U28A: the self-cleavage was determined as 0.35.

As to A6C C18A G19C G27A C46A, the self-cleavage was determined as 1.4. Next, G35C A41G G44U: 0.03; C13A C18U U43G G44A: 0.1. Turning to A11G C13G A25C, the self-cleavage is 0.02. G1U A6G G27U G35C: the self-cleavage was determined as 0.06. Regarding A26U U34A G35U G40U A41G, the self-cleavage came to 0.01. Take G5A G19C C23A G29U: the self-cleavage worked out at 0.05. As for C18A G35C G36A, the self-cleavage turned out to be 0.13. With U9C A25C G35A G36U, the self-cleavage was 0.05. Take U20C C31A A41G: the self-cleavage is 0. For C10U G19U G21U G29C C46G the value was 0.49; for G17C G19A U32G, 2.22; for A4U U43G C45A, 0.04. As to U20A A26C G29U C45A, the self-cleavage was 0.05. Consider G19U C31U G36A C42A G44C, for which the self-cleavage amounted to 0. Next, G2U G36C G40U C42A: 0.04. With C8A A16G G17C G30U G36C, the self-cleavage stood at 0.14. For A14U U38A A39U, the self-cleavage was found to be 0.54.

For the variant G2U U28C G29A, the self-cleavage amounted to 0.04.

As to G7C C10G G27U, the self-cleavage worked out at 0.01. G2A A6G C10A: the self-cleavage was 0.01. For the variant C8U G22C C31G, the self-cleavage is 0.1. Next, C23G C37A U43A: 0; C8A G17C G30C: 0.11.

On to C8G C10G C15A G35C, for which the self-cleavage is 0.02. On to C3U C13G C18G, for which the self-cleavage amounted to 0.08. Turning to G2A G40A C45U, the self-cleavage came to 0.12. G2A A16G U20G A26G C37U: the self-cleavage worked out at 0.1. In the case of A4G U9G A12G, the self-cleavage is 0. Regarding G7U G29U G30U, the self-cleavage came to 0.12.

As for U20G A24C G29A C42A, the self-cleavage worked out at 0.22. For A4C A25G U34A the value was 0.06.

As for A12G A26C U34C, the self-cleavage is 0.02. For the variant G7A G19U G35C G40C, the self-cleavage turned out to be 0.01. For the variant C13A G21U C46A, the self-cleavage turned out to be 0.02. Take G30U G33U C37U A41G: the self-cleavage is 0.12. In the case of G2U A12C A26G, the self-cleavage was determined as 0.03.

For C3A G21U U38G, the self-cleavage was found to be 0.03. Consider G19C G36U U38C, for which the self-cleavage is 0.02. For C31G G36C G40U the value was 0.03; for C15U U32C U38C, 0.04.

G2U C3A G17C C31A: the self-cleavage turned out to be 0.49.

On to C8A G29C C42A, for which the self-cleavage stood at 0.25. Next, G7C G22C C45A: 0.07; A4C G19C G22A A25G U28C C37A: 0.01; G7C C15U A24C G44U: 0.13. As to U20A C37A C42G, the self-cleavage was 0.02. Next, C10A G17C C18G C23A A25U U43A: 0.01; U9C U20A C46U: 0.02. Regarding G5A C10A G21C, the self-cleavage stood at 0.04. For G22U G29U C31A, the self-cleavage was 0.1. As to G5C G21C C23U U34C, the self-cleavage came to 0.03.

For the variant C8U C13U A24C, the self-cleavage came to 0.25. On to C15G U20G U34G G36U, for which the self-cleavage was determined as 0.04. With C3U C18U U43G, the self-cleavage amounted to 0.06. As to C13A A25G G36U, the self-cleavage stood at 0.09. For C15U U20C U38G the value was 0.01; for C3U C13A G30U C46A, 0.05.

Turning to G2A A4C A6G G40U A41U G44A, the self-cleavage was 0.1. As for A24G G27U G29U G44A C45U, the self-cleavage was found to be 0.19.

On to A4G U9G C10A G27U, for which the self-cleavage came to 0.01. Consider C3A G7U A25U, for which the self-cleavage was 0.41. Take G17A A26G C31A G35A A39C: the self-cleavage came to 0.02. In the case of G5U C8U G19U G44U, the self-cleavage was determined as 0.1.

As to G1A A12U G17A C23A C31U, the self-cleavage is 0.16.

With A14G A16C C23A U28C C42G C45U, the self-cleavage stood at 0.05. Next, A11U G22U G36C A39U U43G: 0.02; G1A A11G C37A: 0.03; C10A A26C G29A C31U U32G A41G: 0. As to G17A A26U G30C G35A U43A, the self-cleavage came out at 0.04.

With C15U U32G G33U, the self-cleavage was found to be 0.05.

As to G2U C3U C18G G27A C31G G40C, the self-cleavage is 0.04.

With G2A C13A G35C, the self-cleavage came to 0.11.

As for G1C G27C C37A A41G, the self-cleavage turned out to be 0.02. Next, G2C C31G C45U: 0.04. As to C13G C18G G21U C23U G40C, the self-cleavage amounted to 0.01. G7C G27A U38A C42U: the self-cleavage was determined as 0.09. In the case of A6C G22U G33U G36A G44A, the self-cleavage amounted to 0.04. With G17U C18U G22A A24C C46U, the self-cleavage came out at 0.05. On to G21C G22C G27C U34A G36A, for which the self-cleavage came out at 0.07. With G1U A4U G21U, the self-cleavage is 0.09. In the case of A16U C37G C45G, the self-cleavage came to 0.11. As to G1C G7U C15A, the self-cleavage came out at 0.01.

Take G1U G30A C31A U43A: the self-cleavage came to 0.03. Turning to G5A C8A A25C U34A, the self-cleavage amounted to 0.49. On to A6C G35A G40U, for which the self-cleavage came to 0.11.

As for A6C C8G U20G, the self-cleavage was found to be 0.02. As for U34G G36U C45U, the self-cleavage stood at 0.05. Turning to C10G G22A G27A, the self-cleavage stood at 0.09. As to G5U A25G A39U, the self-cleavage amounted to 0.04.

C3U C8G A16U C18G A41C C46A: the self-cleavage stood at 0.06. G7C U28A G33C: the self-cleavage came to 0.04. Take U9A G17U G19C: the self-cleavage was 0.19. As for C10A C23G C37A, the self-cleavage came to 0. Turning to C15A U20A G21U U32C C45U, the self-cleavage amounted to 0.03. Next, A4G U20C A25U A26G: 0.15. In the case of G2A A4U U9A C10U C23G C31U, the self-cleavage was found to be 0.14. For G19A G30U U43A G44U, the self-cleavage amounted to 0.19. As for C3A A6U C18A A41C C42G, the self-cleavage worked out at 0.04. Next, C3U C10U A14U U20A A25C C31G A41C: 0.04; U9G A14C A24U: 0.07. For G19A G21A A25G the value was 1.85. For C8U A25U G33U C42G, the self-cleavage amounted to 0.16. Turning to C3G A11C C23G C46U, the self-cleavage is 0.01. As to G22U A24C U38A, the self-cleavage was determined as 0.47. For the variant G1U C3A C8G U43A, the self-cleavage is 0.05.

Take C13A U28A G36A: the self-cleavage amounted to 0.2. Consider C8G G17U G22C A24U G35C, for which the self-cleavage was 0.05. For A24C G35C U38C G40C the value was 0.03.

For G1A A14C A26C, the self-cleavage turned out to be 0.68. In the case of G5C G40C C42G, the self-cleavage amounted to 0.03.

On to A6C C10U A41G, for which the self-cleavage is 0.02. In the case of C18G A26U G27U G44A, the self-cleavage was 0.2.

In the case of G2A A14U G33A, the self-cleavage was determined as 0.17.

Turning to G22U G29C G36U, the self-cleavage is 0.02. Next, A16G U32A A41U: 0.03; A6C A24U U43A C46G: 0.01. With C23U G27A C37U, the self-cleavage stood at 0.02. For A6C C18A A24C A25U G36C C46U, the self-cleavage is 0.06. For G30C U34A U38C G40U G44A, the self-cleavage was 0.06.

Turning to C8A C18A C31A, the self-cleavage was found to be 0.24.

As to C8U U28A G33A, the self-cleavage amounted to 0.17. As for G2A C3G A4U A14G C18G U28A C42G, the self-cleavage was found to be 0.01. Regarding G7U C15A U20A A26C C37A, the self-cleavage was 0.02. For G5U A6C G19C C42A the value was 0.09; for C3U C23A C37U A41G, 0. On to C10G C13U A16U G19U C46U, for which the self-cleavage stood at 0.02. With G1U G5A U20G C42U, the self-cleavage amounted to 0.12.

On to G5C C42G C46G, for which the self-cleavage came out at 0.17. C13G G29C G33C U43G: the self-cleavage came out at 0. As for G5A A12U U28G G30C, the self-cleavage stood at 0.1. Regarding C8A C13U G29A G40U, the self-cleavage turned out to be 0.21.

Consider C3U A14C G17C U20A G27U G35C, for which the self-cleavage stood at 0.04. With C13A U28G G36A, the self-cleavage worked out at 0.22.

As for A24U U32C G33A U43G, the self-cleavage is 0.01.
